According to the supplement of paper PMC11417369:
This is one part of the list.

The sequences below were run on PfAP2-HC AP2 domain (GST-tagged) (assay: gcPBM binding intensity (ln(normalized median fluorescence intensity)); higher = stronger DNA binding).
In short: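 Binding intensity is the highest Masliner-normalised natural-log median intensity over replicate spots in either probe orientation. To obtain it, GST-tagged P. falciparum DNA-binding domains made in E. coli were incubated for 1 h on an Agilent 4 × 180k array of primer-extended double-stranded 36-bp intergenic genomic probes plus negative controls. Detection used Alexa488 anti-GST antibody with scanning at 488 nm.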

Sequence	gcPBM binding intensity (ln)
ATATCTTAAATTATTTGTACATATATATATATATAT [XGTACX_site8034]	9.81
AAAAAAAAAAAAAAAACACACATACACCCAGACACA [CACACA_site5807]	11.3
ATACATATATAAATATGTACACACATATGTATGATC [XGTACX_site8219]	9.98
GGAAACCCTCCCAAATGTACTTTTATAAAAAAATAC [XGTACX_site5502]	9.48
TATACTCAGAAACACACACACACACCCAAAAAAAAA [CACACA_site4434]	11.1
TTTGCCATAAAACACACACACATGTAAACCCCCTTT [CACACA_site1646]	10.2
ATATAAGTACATATAACACACATATATTATAAGTAT [CACACA_site2647]	9.83
GATATAAGGGTATGAAGTACATAAATATTTTATGCT [XGTACX_site1886]	9.68
TTTTTATTTTTTGTCTGTACATATATAAATTTATTA [XGTACX_site1525]	9.67
TATGCACGCGAACACACACACACAACTAAAAAATAA [CACACA_site7251]	10.3
ATGTAAGTATAAAATGTGCGCATTGGGAATGAGGAC	10.7
ATATATATATATGTATGTATATATATATGTTTGATT [XGTACX_negctrl_site62]	9.84
ATGAATTAACCTAATCGTACAATAAATATTATTATA [XGTACX_site596]	9.54
ACTATTTAAAAATATGGTACACGAAATTCAAGAGAA [XGTACX_site5903]	9.72
TTGTTTATGTGAGAAGTGCATTTTTTCGTTCATGTA	9.72
TTTTTTATTTTGTTGAAGCAATGAAAATGAATGAAA [TGCATGCA_negctrl_site495]	9.35
ATATGTTTAAAAATATGTACGTATTATATATTCTAT [XGTACX_site1358]	9.76
AAGTTTTATATTTATTAAATTTTTTTTTTTCCTTTT [XGTACX_negctrl_site184]	9.2
TACGCGAAATGAATATGTACATATATGAGGGCATAT [XGTACX_site4293]	9.75
TTTATATAAGGACATGCATGCTATTATTAAATATAT [TGCATGCA_site1011]	9.72
TAATATATAAATATATGTACATAATAAATAGGATAT [XGTACX_site3661]	9.98
ACTTCATAGGTTACCTGTACATATAAGGAGTTATCA [XGTACX_site4110]	9.53
ATTTGAAAAAATACTACACACCATATTGTTAATTTT [CACACA_site3829]	9.81

Sequence	gcPBM binding intensity (ln)
AAGATTCATATAAAAAGTACAAAAAGAAAAAAATAA [XGTACX_site6033]	9.6
ATTAAATCATATGAATGTACGGATATATATATTTCC [XGTACX_site8650]	9.57
TGATAAATTTTCACATGTACATATATAGAATAACCT [XGTACX_site2860]	9.58
TCTAAAAAAATTATATCACACATTATAAAGCATATT [CACACA_site4885]	9.43
TAATAAGTATCAAAATGTACATGACAAAAATAATTT [XGTACX_site8961]	9.82
TATACACATAGACACACACACATACACGCACATACA [CACACA_site6908]	10.7
ATAATATATGCAAAAACATGCACATAATATGTAAAA [TGCATGCA_site742]	9.83
ATAATTTTATATAAATGTACATACATTTTTATTATA [XGTACX_site7368]	9.64
ATATATATGTATATATGTACATATATGTATATATAT [XGTACX_site4772]	9.95
ATTTGTATATAATATATATAATTTTTTTTTTTTGTT [XGTACX_negctrl_site425]	9.42
ATAACTATATACATCTGTACATAATACATAGATAAA [XGTACX_site2795]	9.61
ATATCTTCACTTATATGTACTTACATTTTTTTTTTT [XGTACX_site8696]	9.85
ATACATACATATGTATGTACGTATGTATGTATGTAT [XGTACX_site3853]	9.85
CAAATAAAAAAAGTAGCACACATGAATAAAATATAT [CACACA_site3130]	10
TTATAAAAAGAACAATTAAAAAAAAATAAAATAAAA [XGTACX_negctrl_site398]	9.38
AGAATAGTGGAAAACACACACGTTTGAGATATGGAC [CACACA_site4782]	10
CACCCACCCACATACACACACATACACATATATATA [CACACA_site1722]	10.3
TTTTTATGTTCTATATATATATATATATATATATAT [GTGCAC_negctrl_site306]	9.9
GCACGTGTGATTAGATGTACATAACATGTATATGTC [XGTACX_site4632]	9.67
CATAATATATATTGAGCATGCTACTATTGTTAGAAA [TGCATGCA_site740]	9.81
ACATATAAGATATATACACACATATAAATACATTAA [CACACA_site7763]	10
AAAAAAAAAAACTACACACATACAAATATTTATATA [CACACA_site2574]	9.91
AAGAAAATAAATAATACACACAAGGATTTGTAAATA [CACACA_site690]	10

Sequence	gcPBM binding intensity (ln)
CTTTTTTTTTAAAAATGTACACATTTTTGAAAATAC [XGTACX_site3127]	9.51
TTTTTCTTTTTTTTTTCCTTTATCACATAAGAAAAA [CACACA_negctrl_site192]	9.36
AAGATATGAGGGAATACACACATATATATATATATA [CACACA_site1581]	9.76
AAAATGAAGAAGTGCACACATATATATATTTATATA [CACACA_site507]	9.91
TTAATACACCATAAAAGTACATAATATGATATTTAA [XGTACX_site8561]	9.57
ATATGTTTGATTTTTTTTTTTTTTTTTTTTATGTGT [CACACA_negctrl_site1001]	9.61
AAAAAAAAAATTAAAAGTACAGAAAATAAATAAATA [XGTACX_site7470]	9.55
AAAAAAGAAGACATCTAAGTAATAGTAACAATGTAT [CACACA_negctrl_site1660]	9.75
GACATATTATTCATGTGTACATATTATATGTATATA [XGTACX_site3442]	9.7
AAGAATTTAGAAGGCATGCACTTAAACATGCATATA	9.76
TATAAATATACACCCACACACATATATAAATAAATA [CACACA_site7717]	10.8
TTTTTTTTTTTTTTTACACACATTTGAATAACTTTA [CACACA_site6810]	9.54
TATATGGGATATATGTGTACATATAAAATATGTATC [XGTACX_site3365]	9.65
CTTAATATGAATAAAACACACATATATAATTTGTAA [CACACA_site5120]	9.66
AAAAGAATTAAAAAATGTACATATAATATATATATA [XGTACX_site6721]	9.74
TTTTCCCTTACAGAAAAAAAAAAATTCCTAACCCCG [CACACA_negctrl_site650]	9.44
ATATATTTTAGGAGAGTGCATTTAATATTATTTAAT [GTGCAC_site9444]	9.46
TTATATATTTATAATCGTACAATAATTAACGTAAAA [XGTACX_site3206]	9.46
CATATAATAAATAATACACACATATTGTAAATATAT [CACACA_site5734]	9.99
GTAATGAACAAACACAAAAAAAAAAAAAAAATAATA [TGCATGCA_negctrl_site344]	9.66
AATTGAGTATCGTGAGTGCAAAACGTGGTTCAAAGA	9.74
TAAAATAAAATAAAATGTACTTTCCTTTTGATAATA [XGTACX_site6288]	9.36
TATATTAAAAAAAAATGTACACATATATATATATAT [XGTACX_site4524]	9.7

Sequence	gcPBM binding intensity (ln)
TATATGTTTGAATATACACACAACATATATATATAT [CACACA_site4066]	9.81
ATATTATTAATTTGTTGTACAGTTCTTTATTTATAG [XGTACX_site7932]	9.69
CCAGGAAAAATTTATTGTACATATATTTTTATGCTC [XGTACX_site7154]	9.53
TATTTTTGGTTATGTGTGCACTATGAACAACAAAAT	9.73
TATATCTCTTTATTCACACATACGTTTTAAAATAAT [CACACA_site5542]	9.71
TAATAAAACATATATACACACATTAGATATACATAT [CACACA_site6897]	9.91
TTCCCAACATGATATTGTACATTTAATTATAATTAA [XGTACX_site7029]	9.69
TATAAATAAAGACACACACACACACCGTATAATTAC [CACACA_site7829]	10.9
GTGCATAAATCATACACACACACATATATATATATA [CACACA_site2423]	10.3
ATAAAAATAAAAAAAACACACATACCTTATTTTTGT [CACACA_site5452]	10.1
GAAAGAAAATATTAAGTGCATATTTTAATGATACAA [GTGCAC_site9712]	9.77
ATTTTCCATATATTTTGTACATATGTATATTTTCCC [XGTACX_site7795]	9.83
AAATATAAATGGTAATACACATACACACACACATAC [XGTACX_negctrl_site459]	10.5
AATCAAAATAAATTAACACACAATTTTAATATTGTT [CACACA_site10]	9.63
TATAAAAAATTATGTTGTACGTAATATAAAATTTGT [XGTACX_site7122]	9.62
TATTTTTAACAGTGCACACATAACTTAATTATATGT [CACACA_site2194]	9.93
AGATATTTTTCTTAAGTACACACTAATTAGAAACTA [CACACA_site7897]	9.52
TTTTTATTTTAAAAGAATAATTATCTAATATCTATA [CACACA_negctrl_site371]	9.46
TCGAACGTATCATGTGTACACACAAATTGTTTTTTT [CACACA_site8623]	10
GTATAAAAGTAACTAGTGCATTACATATGAATAAAA	9.84
